57 sequences from the supplement of paper PMC11417369 can be followed below.

The list shows a part of the results.

The subject of the test is PF3D7_0420300 AP2 domain 1 (GST-tagged). The test is described as follows: gcPBM binding intensity (ln(normalized median fluorescence intensity)); higher = stronger DNA binding. Put shortly:
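An Agilent 4 × 180k array of primer-extended double-stranded 36-bp intergenic genomic probes, with negative controls, was incubated for 1 h with GST-tagged P. falciparum DNA-binding domains expressed in E. coli. Alexa488 anti-GST antibody detected bound protein, scanned at 488 nm. Binding intensity is the highest Masliner-normalised natural-log median intensity across replicate spots of either probe orientation.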
Regarding “AAAAAAAAAAAAAAAACATGCAATAAAGTGTGCGTA [TGCATGCA_site982]”, the “gcPBM binding intensity (ln)” value came to 9.46. For “TCACATACATTACTTACACACCATATTGATATATAC [CACACA_site6353]”, the “gcPBM binding intensity (ln)” value was 9.7. In the case of “GTTCTGTAAATACGTGCACACACAAATCACAAATGT [CACACA_site7999]”, the “gcPBM binding intensity (ln)” value was 9.74. As for “AATTAAAAAAGTAATTAACACACAATAATGTAATGC [CACACA_site9388]”, the “gcPBM binding intensity (ln)” value worked out at 9.71. With “AAAGAAATGAAATATACACACATACATATATACATA [CACACA_site9335]”, the “gcPBM binding intensity (ln)” value was found to be 9.81. Next, “GATATATTTTATATATGTACATACAATGGTAAATAT [XGTACX_site2759]”: 9.27. Regarding “TTTTTTTTCTTTTTTTGTACATAATAATATATAAAT [XGTACX_site6778]”, the “gcPBM binding intensity (ln)” value worked out at 9.12.

For “TATTCTTACAAAAGTAGTACAATCATTCATATTTTT [XGTACX_site631]”, the “gcPBM binding intensity (ln)” value worked out at 9.01. Regarding “AAAAATGAAAAATGAAAAATGAAAAATGAAAAATAA [CACACA_negctrl_site695]”, the “gcPBM binding intensity (ln)” value worked out at 9.48.

For TATATATATATAATTGTGCACATAATTTTAAACCAA, the “gcPBM binding intensity (ln)” value turned out to be 9.29. For “TAGTTTCAAGTAGGACGTACATATAAAAGGATTTTT [XGTACX_site7136]”, the “gcPBM binding intensity (ln)” value worked out at 9.33.

With “TATGTGTGAAAAAAATGTACATATATATAAATTATA [XGTACX_site7202]”, the “gcPBM binding intensity (ln)” value was determined as 9.47. As for “ATATATATATATAATAGTACATATATTTTGAAAGAT [XGTACX_site5800]”, the “gcPBM binding intensity (ln)” value was 9.28. Turning to “AACTGTAAAAAATATAAACACACATAGAAATATATA [CACACA_site8002]”, the “gcPBM binding intensity (ln)” value is 9.81. Next, AATTTTCCATAGATTGTGCACAAATTTTTATTTTGT: 9.29; “TTATAATCAATGAATACACACATATATTTAATTAAT [CACACA_site3613]”: 9.47; “AAGAAAAAGACTTCATGAAAAAGAATTTTTTTAATT [TGCATGCA_negctrl_site473]”: 8.87. On to “TAATATTATTTTTCAGTGCAATATAACCTTAGAATT [GTGCAC_site9417]”, for which the “gcPBM binding intensity (ln)” value was 9.01. Next, “ATATATTTTTTTTTTATTTTATTATTATAATTTATC [XGTACX_negctrl_site16]”: 9.33; AAACAAAACAACTAAGTGCATAAAAATAAAATAAAT: 9.69; “ATTTTATTTTTTTGAAGTACGAATTCCGAGAAGAAA [XGTACX_site43]”: 8.77. For the sequence “TATTCAAAAATATAAACAATGAAACAGTATAATATG [CACACA_negctrl_site1482]”, the “gcPBM binding intensity (ln)” value is 9.54. Regarding “TATAGTTCTTCTATTTGTACATATATTATTATTTAA [XGTACX_site895]”, the “gcPBM binding intensity (ln)” value is 9.26. Next, “GGATATTATATAAAGTGTACAAGACAAATATATACA [XGTACX_site8173]”: 9.42; “ATATATCAAGGGAGTGAATGTTATGCATATGAATAT [TGCATGCA_negctrl_site573]”: 9.35. Next, “AATAAATTAAATAAAAATGTTTAACATAAAATATGA [GTGCAC_negctrl_site373]”: 9.13; “AAATTAACAAACTGTAGTACTAACAATATATACAAA [XGTACX_site1772]”: 9.45. With “AAAAAAAAAAAACACACACACAAAATAAACAAACAA [CACACA_site2721]”, the “gcPBM binding intensity (ln)” value worked out at 10.3. Consider “ATTATAATTATCAAGGTGCGTGTATTATAATAAATA [GTGCAC_site9917]”, for which the “gcPBM binding intensity (ln)” value was found to be 9.3.

As for “TAATATAATAATAATTGTACTTTTCATAGTGTAATT [XGTACX_site8152]”, the “gcPBM binding intensity (ln)” value worked out at 9.07. On to “TCTTTTATATTGTAGAGTACATATTTTCAATATATA [XGTACX_site5586]”, for which the “gcPBM binding intensity (ln)” value amounted to 9.04. For “TTCTTTTATAAAAGTAGTACAATTATATTGTAATTA [XGTACX_site2855]”, the “gcPBM binding intensity (ln)” value was 8.89.

For the sequence “AAATTGTCAAAACACGCACACACATATACATAATAA [CACACA_site1743]”, the “gcPBM binding intensity (ln)” value is 9.86. On to “GTGATACGCTATAGGACACACGCTTAATAATTATAA [CACACA_site1694]”, for which the “gcPBM binding intensity (ln)” value came to 9.1. Next, “ATCATAAATTATTATACACACAATACGTGACCTATT [CACACA_site1906]”: 9.71; TTTTAAGGTGTGAAGGTGCAAAAAGGTAAATAGGAA: 9.62; “TAAACAGAAGCACATACACACACTCAAAAAAAAAAA [CACACA_site3051]”: 9.83. As to “CACAAACACCCAAACACACACACACCGACATACATA [CACACA_site4410]”, the “gcPBM binding intensity (ln)” value was 10. Take “AAAATACATAAACACACACACACACCGATATATATA [CACACA_site9186]”: the “gcPBM binding intensity (ln)” value amounted to 10.3. Take “AAAAAAAAAAAAGGCACACAAACATATGTAGACATA [CACACA_site2284]”: the “gcPBM binding intensity (ln)” value was determined as 9.67. Consider “TCGTGTGTAATATTATATATATATATATAATATATA [TGCATGCA_negctrl_site289]”, for which the “gcPBM binding intensity (ln)” value was found to be 9.37.

On to “TATTTTACACATTTACGTACATAAATATATATATAT [XGTACX_site8788]”, for which the “gcPBM binding intensity (ln)” value turned out to be 9.49. Next, “TACGCACAAAAATATACACACACACCGATATATTTA [CACACA_site9213]”: 9.89.

As to “AGACATTTTTAAGCAAAACATTCATCATCTTATAAT [CACACA_negctrl_site1539]”, the “gcPBM binding intensity (ln)” value amounted to 9.03. Regarding “TTTGAAATGATATATAAACACACATATATATATATA [CACACA_site9170]”, the “gcPBM binding intensity (ln)” value turned out to be 9.45. Regarding “CTAACAACCAAACGCACACACACAAAAAAAAAAATA [CACACA_site400]”, the “gcPBM binding intensity (ln)” value is 9.96. Next, “ATATTGAATTCCAACACATGCAAAACTTTCGGTTTT [TGCATGCA_site485]”: 9.2; “AACAACTATTAATTTACACACATGTATATATCTTAC [CACACA_site7459]”: 9.69. As to “TATTAAAAGGTGAGTACACACATATATGCGTATATA [CACACA_site2102]”, the “gcPBM binding intensity (ln)” value was determined as 9.37. Next, “TAGAAGCAGAAACACACACACATACATACACATACA [CACACA_site1467]”: 9.99. As to “TCTATGTAGTTTTTATGTACTAAATAAATAAATAAA [XGTACX_site2599]”, the “gcPBM binding intensity (ln)” value stood at 8.83. Next, “TTTTCAATATATATTTGTACTTTATTTTATGATATT [GTGCAC_negctrl_site732]”: 9.46. Consider “GCATTCATTTTTAATACACACAAAAAAAAAATAAAA [CACACA_site2408]”, for which the “gcPBM binding intensity (ln)” value amounted to 9.34. As to “TAAATGTCCTTATTTGCACACACACCGATAAGAAAT [CACACA_site5723]”, the “gcPBM binding intensity (ln)” value stood at 9.81. On to ACTATTAACAGTGTAGTGCAAAAAGGTTAATTATTA, for which the “gcPBM binding intensity (ln)” value is 9.42. Take “TACATATATATTTGTTCACACACACCCAAAAAAAAA [CACACA_site8788]”: the “gcPBM binding intensity (ln)” value worked out at 9.79.

Consider “TATAAATATATATGTACACACATATACATGTTGAAT [CACACA_site3118]”, for which the “gcPBM binding intensity (ln)” value was 9.48.
